Among all 48,000 compounds or so, about 550 (1.1%) were called active. Roughly 4% stayed inconclusive and do not appear here. Cut-off read from the data, not from the text of the source: active = potency below about 15 µM; inconclusive = mostly about 16 µM to 33 µM; inactive = weaker than that. This is one part of the list.
Each compound was assayed against Lysosomal acid glucosylceramidase (Homo sapiens) (UniProt P04062) (assay: Glucocerebrosidase). Conditions: purified enzyme, resorufin glucoside fluorescence (screen aimed at inhibitors), 20 min.
Chain of UniProt P04062 (P04062 whole entry, looked up): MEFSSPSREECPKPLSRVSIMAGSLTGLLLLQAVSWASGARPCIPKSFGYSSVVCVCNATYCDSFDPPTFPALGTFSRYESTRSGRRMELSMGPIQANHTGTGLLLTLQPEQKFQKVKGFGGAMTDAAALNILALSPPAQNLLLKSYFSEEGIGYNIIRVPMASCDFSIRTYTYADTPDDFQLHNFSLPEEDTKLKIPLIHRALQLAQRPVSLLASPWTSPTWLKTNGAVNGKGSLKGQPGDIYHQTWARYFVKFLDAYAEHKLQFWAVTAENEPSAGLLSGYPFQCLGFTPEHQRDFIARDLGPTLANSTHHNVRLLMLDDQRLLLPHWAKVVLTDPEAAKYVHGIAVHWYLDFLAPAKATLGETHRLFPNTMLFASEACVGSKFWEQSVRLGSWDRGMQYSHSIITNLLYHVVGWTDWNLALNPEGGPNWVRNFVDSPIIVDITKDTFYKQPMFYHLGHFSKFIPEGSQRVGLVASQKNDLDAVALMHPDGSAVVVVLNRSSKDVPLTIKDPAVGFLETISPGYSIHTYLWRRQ
Procedure, shortened: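 Wild-type enzyme at 0.2 nM final in 50mM citric acid/KH2PO4, 10mM sodium taurocholate, 0.01% tween-20, pH 5.9, with resorufin beta-D-glucopyranoside at 30 uM final. Compounds titrated, 20 min at RT, red fluorescence read; AC50 from titration.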
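Note: the screen sought inhibitors.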
Potency is the fitted concentration of half-maximal effect.

Potency, inactive:
Cc1ccc(-n2c(SCC(N)=O)nnc2-c2ccccn2)cc1C > 76.9 µM, CCCOc1ccccc1-c1nc2c([nH]1)c(=O)[nH]c(=O)n2C > 76.9 µM, Cc1ccc(NC(=O)C2CC(=O)NC(Nc3cccc(C)c3)=N2)cc1 (stereo unspecified) > 76.9 µM, Cc1cc(N2CC34C=CC(O3)C(C(=O)O)C4C2=O)no1 (stereo unspecified) > 76.9 µM, O=C(O)CCCC(=O)Nc1ccc(Br)cc1C(=O)O > 76.9 µM, COc1ccc(OC)c(Nc2ncnc3c2cnn3-c2ccccc2)c1 > 76.9 µM, CCOC(=O)c1ccc(NC(=O)N2CCN(S(C)(=O)=O)CC2)cc1 > 76.9 µM, Cc1ccc(S(=O)(=O)Nc2nsc(N)n2)cc1 > 76.9 µM, COc1ccc2c(Cl)c(C(=O)NCCCn3ccnc3)sc2c1, Cc1cc(NC(=O)CCCC(=O)O)nc(C)n1 > 76.9 µM, CCc1c(C)nc(N)n2c(SCC(=O)N3CCN(c4ccccc4F)CC3)nnc12 > 76.9 µM, CCOc1ccc(-c2nnc(SCC(=O)N(CC)CC)n2N)cc1 > 76.9 µM, CNC(=O)Nc1cc(C(C)(C)C)no1 > 76.9 µM, Cc1cc(=O)n2c(ccc3ccccc32)c1C#N > 76.9 µM, CCSc1nc2c(c(=O)[nH]c(=O)n2C)n1C > 76.9 µM, COc1ccccc1C(=O)Nn1c(C2CCC2)nc2ccccc2c1=O > 76.9 µM, CC(=O)Nc1nc(C)c(Oc2ccccc2)c(=O)[nH]1 > 76.9 µM, O=C(C1CC(=O)N(C2CCCC2)C1)N1CCC(Cc2ccccc2)CC1 (stereo unspecified) > 76.9 µM, COC(=O)c1[nH]c(C)c(/C(O)=C2\C(=O)C(=O)N(CCN(C)C)C2c2ccccc2OC)c1C (stereo unspecified) > 76.9 µM, CCCCOc1ccc(S(=O)(=O)NCc2csc(C)n2)cc1 > 76.9 µM, O=C(Cn1cc(C(F)(F)F)ccc1=O)N1CCN(S(=O)(=O)c2ccccc2)CC1 > 76.9 µM, CCc1nc2ccccc2n1Cc1ccc(OC)c(OC)c1 > 76.9 µM, CCOC(=O)c1nnn(CC(=O)Nc2cc(Cl)ccc2C)c1C(=O)OCC > 76.9 µM, CCOC(=O)COc1nc(OC)nc(N2CCOCC2)n1 > 76.9 µM, CCCOc1ccc(-c2nnn(CC(=O)OCC)n2)cc1 > 76.9 µM, CCOC(=O)c1c(C)[nH]c(C)c1C(=O)CSc1nnc(-c2ccncc2)n1C, CCc1ccc(-c2nc(CN3CCC(C(=O)NCCc4ccc(OC)c(OC)c4)CC3)c(C)o2)cc1 > 76.9 µM, O=C(CNS(=O)(=O)c1cccs1)N1CCc2ccccc2C1 > 76.9 µM, CCn1c(SCc2nc3ccccc3[nH]2)nnc1-c1cnccn1 > 76.9 µM, O=C(/C=N/O)Nc1ccccc1 > 76.9 µM, O=C(NCc1ccc(F)cc1)C1CCCN1C(=O)NCc1ccccc1 (stereo unspecified) > 76.9 µM, COc1ccccc1NC(=O)C(C)NS(=O)(=O)c1ccc(F)cc1 (stereo unspecified) > 76.9 µM, Cc1cc(OCCCC(=O)N2CCCCC2)cc(C)c1Cl > 76.9 µM, O=C(CSc1nc(-c2ccccc2Cl)ns1)NCc1ccco1 > 76.9 µM, CCOC(=O)C1CCN(c2cc(=O)n(-c3ccccc3Cl)c(=O)[nH]2)CC1 > 76.9 µM, CCn1c(SCC(=O)NCc2cccs2)nc2c1c(=O)n(C)c(=O)n2C > 76.9 µM, COC(=O)c1ccc(COc2ncnc3c(Cl)cc(Cl)cc23)o1 > 76.9 µM, O=C(CSc1nnc(Cc2cc(=O)[nH]c(=O)[nH]2)n1-c1ccc(Cl)cc1)NCC1CCCO1 (stereo unspecified) > 76.9 µM, O=C1NC2(CCCCC2)N=C1c1ccccc1 > 76.9 µM, CC(C)(C)OC(=O)NCCc1nnc(SCC(=O)Nc2cccc(Cl)c2)o1 > 76.9 µM, NC(=O)C1CCN(CC(=O)N2c3ccccc3CCc3ccccc32)CC1 > 76.9 µM, CC1(C)CC2CC(C)(CN2CC(=O)C(C#N)c2ccccc2)C1 (stereo unspecified) > 76.9 µM, COC(=O)c1ccc(C(c2c(N)n(Cc3ccccc3)c(=O)n(C)c2=O)N2CCOCC2)cc1 (stereo unspecified) > 76.9 µM, CNC(=O)c1nnn(-c2ccccc2)c1C(=O)NC > 76.9 µM, CCCn1nc(CC(=O)O)c2ccccc2c1=O > 76.9 µM, CCCOC(=O)Nc1ccc(N2CCCCC2)cc1 > 76.9 µM, O=C1CCCN1CCCN1C(=O)N[C@@H](Cc2ccccc2)C1=O > 76.9 µM, Cc1ccc(S(=O)(=O)c2cc3c(=O)n4cccc(C)c4nc3n(Cc3ccco3)c2=N)cc1C > 76.9 µM, CC(C)(NO)/C(=N/O)c1cccs1 > 76.9 µM, COc1ccc(CCNC(=O)NC2CCCCC2)cc1OC > 76.9 µM, CC1CCCN(S(=O)(=O)c2ccc(NC(=O)c3cccc(-n4cnnn4)c3)cc2)C1 (stereo unspecified), O=C(CN(Cc1ccc2c(c1)OCO2)C(=O)CNS(=O)(=O)c1ccccc1)NCC1CCCO1 (stereo unspecified) > 76.9 µM, Cc1nc(Nc2nc(=O)c3ccccc3n2C)nc2c(C)cccc12 > 76.9 µM, Cc1nnc(Nc2ccc(C(=O)NCCO)cc2)c2ccccc12 > 76.9 µM, Cc1cccc(C)c1NC(=O)Cn1c(=O)n(CCCC(=O)NCc2ccco2)c(=O)c2sccc21 > 76.9 µM, COc1ccc(C(=O)NC(C)c2nc3ccccc3[nH]2)cc1OC (stereo unspecified) > 76.9 µM, O=C(NCCc1ccccc1)C1c2ccccc2C(=O)N1C1CC1 (stereo unspecified) > 76.9 µM, COC(=O)c1ccc2c(=O)n(CCCN3CCOCC3)c(=S)[nH]c2c1 > 76.9 µM, COc1ccc(-c2cc3c(=O)n(CC(=O)NC4CCN(Cc5ccccc5)CC4)ncn3n2)cc1 > 76.9 µM, O=C(NCCc1ccccc1)C(c1cccs1)N(C(=O)c1csnn1)C1CC1 (stereo unspecified) > 76.9 µM, Cc1cc(C(=O)OCC(=O)c2ccc3c(c2)OCCO3)c(C)o1 > 76.9 µM, Cc1cccc(C)c1Nc1nnc(SCC(=O)NCc2ccco2)s1 > 76.9 µM, O=C1CSC(=S)N1CC1CCCO1 (stereo unspecified) > 76.9 µM, CCCCn1c(SCn2nnc3ccccc3c2=O)nc2cc(C(=O)OC)ccc2c1=O > 76.9 µM, COC(=O)c1ccc(C)c(N(CCO)CCO)c1 > 76.9 µM, CC1(c2ccc3noc(-c4ccc(Cl)cc4)c3c2)OCCO1 > 76.9 µM, Cc1cccc2cc(CN(Cc3cccnc3)C(=O)c3ccncc3)c(=O)[nH]c12 > 76.9 µM, COc1cccc(-n2c(COc3ccc(C)cc3)nnc2SCC(=O)O)c1 > 76.9 µM, CCOC(=O)N1CCN(C(=O)c2cccn3c(=O)c4sccc4nc23)CC1 > 76.9 µM, CN1CCc2c(sc3c2c(=O)n(-c2ccccc2)c2nncn32)C1 > 76.9 µM, COc1ccccc1N1CCN(CC(=O)c2c(C)n(C)c3ccccc23)CC1 > 76.9 µM, CN1/C(=C\C(=O)COC(=O)C2COc3ccccc3O2)C(C)(C)c2ccccc21 (stereo unspecified) > 76.9 µM, CCOc1cc(C2C(C(=O)c3ccc(C)o3)=C(O)C(=O)N2CCc2ccccc2)ccc1O (stereo unspecified) > 76.9 µM, O=C1NC(=S)SC1=C1CCCCCC1 > 76.9 µM, Cc1occc1-c1nnc(SCc2nc3ccccc3c(=O)n2CC#N)n1C > 76.9 µM, O=C(C1CCN(S(=O)(=O)N2CCOCC2)CC1)N1CCN(c2ccccc2)CC1 > 76.9 µM, O=C1OCCC1Sc1nnc(-c2ccc3c(c2)OCO3)n1-c1ccccc1 (stereo unspecified) > 76.9 µM, N#CC(C(=O)CCN1C(=O)C2CC=CCC2C1=O)c1nc2ccccc2[nH]1 (stereo unspecified) > 76.9 µM, Cc1nnc(SCC(=O)Nc2ccc(Cl)cn2)n1Cc1ccccc1 > 76.9 µM, CCN(C(=O)CCS(=O)(=O)c1ccc(Br)cc1)c1ccc2c(c1)OCO2 > 76.9 µM, O=C(NCc1cccs1)Nc1cccs1 > 76.9 µM, C[C@H](C(=O)C=[N+]=[N-])N1C(=O)c2ccccc2C1=O > 76.9 µM, O=C(CCN1C(=O)COc2ccccc21)NCCN1CCOCC1 > 76.9 µM, Cc1ccc(-c2noc(CCC(=O)NCCCN3CCN(c4cccc(Cl)c4)CC3)n2)cc1 > 76.9 µM, Cc1cccc(CCNS(=O)(=O)c2ccc3c(c2)oc(=O)n3C)c1 > 76.9 µM, Cc1cc(C)c2cc(CN(CC3CCCO3)C(=O)NC3CCCCC3)c(=O)[nH]c2c1 (stereo unspecified) > 76.9 µM, CCOC(=O)C1C(C#N)=C(N)OC(C)=C1c1ccncc1 (stereo unspecified) > 76.9 µM, COc1ccccc1C1C2CCCCC2(O)CCN1CC(=O)Nc1ccccc1 (stereo unspecified) > 76.9 µM, CCc1nc2ccccc2c(=O)n1NC(=O)c1c(O)c2cccc3c2n(c1=O)CCC3 > 76.9 µM, O=C(Cc1cccs1)NCc1ccco1 > 76.9 µM

Potency, active:
Nc1nc(N2CCN(C/C=C/c3ccccc3)CC2)nc2ccccc12 8.42 µM

— PubChem BioAssay AID360 (National Center for Advancing Translational Sciences (NCATS), 2006)
